Some entries of the source have several records that differ or are many. Only these are listed. The source may hold further records. Results that share an entry repeat one measurement in other runs, samples, wells, individuals or studies. Marks such as [2022-09] give the month of the run.

What is called viability, T/C is the result in the treated group divided by that in the control group, in per cent. One may read the IC50 as the concentration at which inhibition is half-maximal.

The test system of this test is 435261-313-R-J1-PDC complex spheroid viability. The test is described as follows: Anticancer human tumor 435261-313-R-J1-PDC patient-derived colon adenocarcinoma cell line growth inhibition [GQUAD]. The conditions noted are these: for viability, T/C: stronger effect = lower value; for IC50: compound alone. From the text:
DNA G-quadruplex Stabilizer Agents in Combinations in Complex Spheroids
A high-throughput screen of multi-cell type tumor spheroids was designed to identify active combinations of DNA G-quadruplex stabilizer agents and targeted small molecules. Complex spheroids include a stromal component modeled by human endothelial cells (HUVEC) and fibroblasts modeled by human mesenchymal stem cells (MSCs). The concentration ranges selected for each drug and investigational agent were based upon clinically achievable concentrations if the clinical Cmax of the agent was known.
Compounds. The drugs and investigational agents: pidnarulex (CX-5461; NSC782164), APTO-253 (NSC789042), BRACO-19 (NSC847499), peposertib (NSC802822), ceralasertib (NSC780249), elimusertib (NSC800525), camonsertib (NSC841442), AZD-1390 (NSC803789), olaparib (NSC753686), talazoparib (NSC767125), ART-558 (NSC835418), sotorasib (NSC818433), MRTX-1133 (NSC836407), SN-38 (NSC673596), topotecan (NSC609699), etoposide (NSC141540), doxorubicin (NSC123127), gemcitabine (NSC613327), 5-fluorouracil (NSC19893), paclitaxel (NSC125973), vemurafenib (NSC761431), panobinostat (NSC761190), R-306465 (JNJ-16241199; NSC773264), adavosertib (NSC754352), TP-3654 (NSC805149), carboplatin (NSC241240), KSQ-4279 (NSC840948), and staurosporine (NSC755774) were obtained from the National Cancer Institute (NCI) Developmental Therapeutics Program Chemical Repository (34). The FDA-approved anticancer drug set is available from the NCI Developmental Therapeutics Program. […] The stock solutions were prepared in dimethyl sulfoxide (DMSO, Sigma-Aldrich, St. Louis, MO, cat. D2650) at 800-fold the tested concentration and stored at -70 degrees C prior to their use. All drugs and investigational agents were tested over a range starting from a high concentration at or near the clinical Cmax and decreasing in half-log increments. If the clinical Cmax for an agent had not been determined, the highest concentration tested was 10 microM.
2.3 Cell Culture. All cells were maintained in an incubator at 37 degrees C and 5% CO2 with 95% humidity. The PDC lines were cultured according to standard operating procedures established by the NCI PDMR. All PDCs were thawed and cultured in Matrigel-coated flasks prepared with a working solution of 1X Ham's F-12 nutrient mix, without supplementation (Invitrogen, cat. 11765054), 100 U/mL penicillin-streptomycin (Invitrogen, cat. 15140122), and 2.5% Matrigel (Corning Inc., cat. 354248) for the first three passages. The 857933-349-R-J2-PDC line was cultured in 6C/Colon 1B media, which includes advanced DMEM/F-12 (Thermo Fisher Scientific, cat. 12634028), 10 mM HEPES (Thermo Fisher Scientific, cat. 15630080), 1X GlutaMAX supplement (Thermo Fisher Scientific, cat. 35050061), 0.1 mg/mL primocin (InvivoGen, cat. ant-pm-2), 10% defined fetal bovine serum, heat inactivated (HyClone Laboratories Inc., cat. SH30070.03HI), 50% L-WRN conditioned media (ATCC, cat. CRL-3276), 1.25 mM N-Acetyl-L-cysteine (Sigma-Aldrich, cat. A9165), 10 mM nicotinamide (Sigma-Aldrich, cat. N0636), 1X B-27 supplement (Thermo Fisher Scientific, cat. 17504044), 1X N-2 supplement (Thermo Fisher Scientific, cat. 17502048), 10 microM Y-27632 dihydrochloride (Tocris Bioscience, cat. 1254), and 50 ng/mL human EGF recombinant protein (Thermo Fisher Scientific, cat. PHG0311). The 485176-168-R4-J1-PDC line was cultured in Panc media, which includes all 6C/Colon 1B media components plus 100 ng/mL human FGF-10 (Thermo Fisher Scientific, cat. 100-26), 500 nM SB-431542 (Selleckchem, cat. S1067), and gastrin (Tocris, cat. 3006).
[…]
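Further: spheroids exposed to the agents for seven days before readout.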
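Wherever viability, T/C is given: percent of vehicle control viability with DMSO wells as 100%.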

Take `CN(C)c1ccc(Nc2c3ccc(NC(=O)CCN4CCCC4)cc3nc3cc(NC(=O)CCN4CCCC4)ccc23)cc1`: the viability, T/C was 113, 89.4, 94.5, 81.2, 93.8, 87, 98.7, 104, 88.1, 86, 78.7% (compound alone 0.0316 µM); 88, 76, 104, 107, 73.7, 99.5, 92.7, 105, 94, 103, 101% (compound alone 0.1 µM); 105, 82.5, 96.7, 121, 91.3, 92.4, 95.9, 86.5, 78.3, 73.3, 83.1% (compound alone 0.316 µM); 98.1, 90.2, 84.9, 95.6, 73.2, 85.4, 84.7, 74.2, 109, 94.5, 71% (compound alone 1 µM). Besides, the half-inhibitory concentration (IC50) (run of 02/26/2024) is on record as 6.04 µM, 6.43 µM, 7.43 µM, 6.84 µM, 6 µM, 5.51 µM, 4.83 µM, 3.58 µM, 8.69 µM, 7.12 µM, > 10 µM.

For the compound `CC(=O)O[C@H]1C(=O)[C@@]2(C)[C@H]([C@H](OC(=O)c3ccccc3)[C@]3(O)C[C@H](OC(=O)[C@H](O)[C@@H](NC(=O)c4ccccc4)c4ccccc4)C(C)=C1C3(C)C)[C@]1(OC(C)=O)CO[C@@H]1C[C@@H]2O`, the IC50 was 216 nM and > 10 µM.

In the case of `Cc1cnc(CNC(=O)c2c(=O)c3ccc(N4CCCN(C)CC4)nc3n3c2sc2ccccc23)cn1`, the concentration for half-maximal inhibition (IC50) (run of 02/20/2024) was 753 nM, 1.06 µM, 527 nM and 513 nM, 1.25 µM, 327 nM, 783 nM, 434 nM, 351 nM, 637 nM [2024-02].

Regarding `Cc1[nH]c2ccc(F)cc2c1-c1nc2c3cccnc3c3ncccc3c2[nH]1`, the viability, T/C runs as follows: (compound alone 0.1 µM) 104, 86, 90.9, 92.1, 138, 98.2, 102, 77.7%; (compound alone 0.316 µM) 102, 84.8, 63.5, 86.7, 78, 93.1, 75.2, 65.8%; (compound alone 1 µM) 78.2, 69.7, 77.3, 78.5, 67.2, 50.6, 52.5, 78.1%.

In the case of `CCc1c2c(nc3ccc(O)cc13)-c1cc3c(c(=O)n1C2)COC(=O)[C@]3(O)CC`, the IC50 was 23 nM, 19.4 nM, > 316 nM.

The values are drawn from PubChem BioAssay AID2060494 (Molecular Pharmacology Branch, DTP, NCI, 2025).
